# Measurements published in the supplement of paper PMC8728848.
# Some of the results follow.
# B1: GS7807P-bth-537-23-537 (Bacteroides thetaiotaomicron) (protein)
# chain: NYENINSNPYEAPDLSADGYALGSAMNNLAGCVVSPDVNTAQFTDCLLGGPLGGYFADSNAGFTETISNFNPKDDWSRVFLKSDKIIPTLYSNLTQVKLVSQNTNDPVPYAIAQVIKVAAMHRVTDAFGPIPYSQIGANGEIATPYDSQEVTYNTFFDELNAAIATLNENSNEQLVPTADYIYKGDVKKWIRFANSLKLRLAIRIAYANPVKAQQMAEEAVNPANGGVIESNADNATWNYFETSQNPIYVATRYNQVQTSDHGGVPCLTGGDTHAAADIICYMNGYKDNRREKFFTKSEWAGQDYVGMRRGIVIPELKTTGHKYSGVNIAPTSPLYWMNAAEVAFLRAEGQAVFNFSMGGTAESFYNQGIRLSFEQWGADGVEDYLKDDVNKPTAYTDPAGTNTYQNALSNITIKWNDSADKEEKQERIIVQKWIANWQLGNEAWADFRRTGYPKLIPVKENKSGGVVDSEKGARRMPYPLDEFVSNKANVEYAIANYLHGADNMATDVWWASKK
# What was measured:
# Experiment in all cases: glycan array binding signal (z-score within array); higher = stronger binding
# Details in all cases: glycan notation: IUPAC condensed, linker removed
# [1] = molecular target: Gal(a1-3)Gal(b1-4)GlcNAc(b1-2)Man
# How it was run: (§1)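 Negative Z-scores can be read as non-binding. The Z-score is calculated within each array and then averaged across arrays of one protein sequence at different concentrations or buffers and across linkers. Arrays, 3228 in all, were curated from the Consortium for Functional Glycomics database and kept only where the protein sequence was available.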
# [2] = molecular target: Gal(a1-3)Gal(b1-4)GlcNAc(b1-2)Man(a1-3)[Gal(a1-3)Gal(b1-4)GlcNAc(b1-2)Man(a1-6)]Man(b1-4)GlcNAc(b1-4)GlcNAc
# How it was run: as §1
# [3] = molecular target: Gal(a1-3)Gal(b1-4)GlcNAc(b1-3)GalNAc
# How it was run: as §1
# [4] = molecular target: Gal(a1-3)Gal(b1-4)GlcNAc(b1-6)GalNAc
# How it was run: as §1
# [5] = molecular target: Gal(a1-3)Gal(b1-4)[Fuc(a1-3)]GlcNAc
# How it was run: as §1
# [6] = molecular target: Gal(a1-3)Gal(b1-4)[Fuc(a1-3)]GlcNAc(b1-2)Man(a1-3)[Gal(a1-3)Gal(b1-4)[Fuc(a1-3)]GlcNAc(b1-2)Man(a1-6)]Man(b1-4)GlcNAc(b1-4)GlcNAc
# How it was run: as §1
# Gal(a1-3)GalNAc = molecular target: Gal(a1-3)GalNAc
# How it was run: as §1
# [7] = molecular target: Gal(a1-3)[Gal(a1-4)]Gal(b1-4)GlcNAc
# How it was run: as §1
# [8] = molecular target: Gal(a1-4)Gal(b1-3)GlcNAc(b1-2)Man(a1-3)[Gal(a1-4)Gal(b1-3)GlcNAc(b1-2)Man(a1-6)]Man(b1-4)GlcNAc(b1-4)GlcNAc
# How it was run: as §1
# Gal(a1-4)Gal(b1-4)Glc = molecular target: Gal(a1-4)Gal(b1-4)Glc
# How it was run: as §1
# Gal(a1-4)Gal(b1-4)GlcNAc = molecular target: Gal(a1-4)Gal(b1-4)GlcNAc
# How it was run: as §1
# [9] = molecular target: Gal(a1-4)Gal(b1-4)GlcNAc(b1-2)Man(a1-3)[Gal(a1-4)Gal(b1-4)GlcNAc(b1-2)Man(a1-6)]Man(b1-4)GlcNAc(b1-4)GlcNAc
# How it was run: as §1
# [10] = molecular target: Gal(a1-4)Gal(b1-4)GlcNAc(b1-3)Gal(b1-4)Glc
# How it was run: as §1
# Gal(a1-4)GlcNAc = molecular target: Gal(a1-4)GlcNAc
# How it was run: as §1
# Gal(a1-6)Glc = molecular target: Gal(a1-6)Glc
# How it was run: as §1
# Gal(b1-2)Gal = molecular target: Gal(b1-2)Gal
# How it was run: as §1
# Gal(b1-3)Gal = molecular target: Gal(b1-3)Gal
# How it was run: as §1
# Gal(b1-3)Gal(b1-4)GlcNAc = molecular target: Gal(b1-3)Gal(b1-4)GlcNAc
# How it was run: as §1
# Gal(b1-3)GalNAc = molecular target: Gal(b1-3)GalNAc
# How it was run: as §1
# [11] = molecular target: Gal(b1-3)GalNAc(a1-3)[Fuc(a1-2)]Gal(b1-4)Glc
# How it was run: as §1
# [12] = molecular target: Gal(b1-3)GalNAc(a1-3)[Fuc(a1-2)]Gal(b1-4)GlcNAc
# How it was run: as §1
# Gal(b1-3)GalNAc(b1-3)Gal = molecular target: Gal(b1-3)GalNAc(b1-3)Gal
# How it was run: as §1
# [13] = molecular target: Gal(b1-3)GalNAc(b1-3)Gal(a1-4)Gal(b1-4)Glc
# How it was run: as §1
# [14] = molecular target: Gal(b1-3)GalNAc(b1-4)Gal(b1-4)Glc
# How it was run: as §1
# [15] = molecular target: Gal(b1-3)GalNAc(b1-4)[Neu5Ac(a2-3)]Gal(b1-4)Glc
# How it was run: as §1
# Gal(b1-3)GlcNAc = molecular target: Gal(b1-3)GlcNAc
# How it was run: as §1
# [16] = molecular target: Gal(b1-3)GlcNAc(a1-3)Gal(b1-4)GlcNAc
# How it was run: as §1
# [17] = molecular target: Gal(b1-3)GlcNAc(a1-6)Gal(b1-4)GlcNAc
# How it was run: as §1
# Gal(b1-3)GlcNAc(b1-2)Man = molecular target: Gal(b1-3)GlcNAc(b1-2)Man
# How it was run: as §1
# [18] = molecular target: Gal(b1-3)GlcNAc(b1-2)Man(a1-3)[Gal(b1-3)GlcNAc(b1-2)Man(a1-6)]Man(b1-4)GlcNAc(b1-4)GlcNAc
# How it was run: as §1
# [19] = molecular target: Gal(b1-3)GlcNAc(b1-2)Man(a1-3)[Gal(b1-3)GlcNAc(b1-2)Man(a1-6)]Man(b1-4)GlcNAc(b1-4)[Fuc(a1-6)]GlcNAc
# How it was run: as §1
# [20] = molecular target: Gal(b1-3)GlcNAc(b1-2)Man(a1-3)[GlcNAc(b1-4)][Gal(b1-3)GlcNAc(b1-2)Man(a1-6)]Man(b1-4)GlcNAc(b1-4)GlcNAc
# How it was run: as §1
# [21] = molecular target: Gal(b1-3)GlcNAc(b1-2)[Gal(b1-3)GlcNAc(b1-6)]Man(a1-6)[Gal(b1-3)GlcNAc(b1-2)Man(a1-3)]Man(b1-4)GlcNAc(b1-4)GlcNAc
# How it was run: as §1
# [22] = molecular target: Gal(b1-3)GlcNAc(b1-3)Gal(b1-3)GlcNAc
# How it was run: as §1
# [23] = molecular target: Gal(b1-3)GlcNAc(b1-3)Gal(b1-4)Glc
# How it was run: as §1
# [24] = molecular target: Gal(b1-3)GlcNAc(b1-3)Gal(b1-4)GlcNAc
# How it was run: as §1
# [25] = molecular target: Gal(b1-3)GlcNAc(b1-3)Gal(b1-4)GlcNAc(b1-2)Man(a1-3)[Gal(b1-3)GlcNAc(b1-3)Gal(b1-4)GlcNAc(b1-2)Man(a1-6)]Man(b1-4)GlcNAc(b1-4)GlcNAc
# How it was run: as §1
binder,measurement,setting,value
B1,glycan array binding signal (z-score),[1],-0.141
same,glycan array binding signal (z-score),[2],0.323
same,glycan array binding signal (z-score),[3],-0.162
same,glycan array binding signal (z-score),[4],-0.157
same,glycan array binding signal (z-score),[5],0.577
same,glycan array binding signal (z-score),[6],-0.312
same,glycan array binding signal (z-score),Gal(a1-3)GalNAc,0.008
same,glycan array binding signal (z-score),[7],0.802
same,glycan array binding signal (z-score),[8],0.331
same,glycan array binding signal (z-score),Gal(a1-4)Gal(b1-4)Glc,-0.375
same,glycan array binding signal (z-score),Gal(a1-4)Gal(b1-4)GlcNAc,-0.204
same,glycan array binding signal (z-score),[9],-0.139
same,glycan array binding signal (z-score),[10],-0.332
same,glycan array binding signal (z-score),Gal(a1-4)GlcNAc,-0.402
same,glycan array binding signal (z-score),Gal(a1-6)Glc,-0.354
same,glycan array binding signal (z-score),Gal(b1-2)Gal,-0.345
same,glycan array binding signal (z-score),Gal(b1-3)Gal,-0.354
same,glycan array binding signal (z-score),Gal(b1-3)Gal(b1-4)GlcNAc,0.851
same,glycan array binding signal (z-score),Gal(b1-3)GalNAc,-0.214
same,glycan array binding signal (z-score),[11],-0.313
same,glycan array binding signal (z-score),[12],-0.075
same,glycan array binding signal (z-score),Gal(b1-3)GalNAc(b1-3)Gal,-0.372
same,glycan array binding signal (z-score),[13],0.168
same,glycan array binding signal (z-score),[14],0.496
same,glycan array binding signal (z-score),[15],-0.335
same,glycan array binding signal (z-score),Gal(b1-3)GlcNAc,-0.21
same,glycan array binding signal (z-score),[16],0.268
same,glycan array binding signal (z-score),[17],-0.173
same,glycan array binding signal (z-score),Gal(b1-3)GlcNAc(b1-2)Man,-0.221
same,glycan array binding signal (z-score),[18],0.031
same,glycan array binding signal (z-score),[19],2.17
same,glycan array binding signal (z-score),[20],-0.124
same,glycan array binding signal (z-score),[21],0.143
same,glycan array binding signal (z-score),[22],-0.027
same,glycan array binding signal (z-score),[23],-0.329
same,glycan array binding signal (z-score),[24],-0.35
same,glycan array binding signal (z-score),[25],-0.327
